Reference: publication PMC4336329 (PLoS ONE, 2015)
Screen size: about 310,000 compounds; about 14,000 (4.5%) showed an effect of 50% or more. The effect is printed as a negative number. The list shows a part of the results.
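Further: peak tail current of the secondary pulse compared with the same well before compound.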

The compounds below were run against human ether-à-go-go-related gene (hERG) potassium channel (human, UniProt Q12809) (assay: primary screen, population patch clamp on CHO cells stably expressing hERG).
human ether-à-go-go-related gene (hERG) potassium channel, sequence (Q12809 whole entry, looked up): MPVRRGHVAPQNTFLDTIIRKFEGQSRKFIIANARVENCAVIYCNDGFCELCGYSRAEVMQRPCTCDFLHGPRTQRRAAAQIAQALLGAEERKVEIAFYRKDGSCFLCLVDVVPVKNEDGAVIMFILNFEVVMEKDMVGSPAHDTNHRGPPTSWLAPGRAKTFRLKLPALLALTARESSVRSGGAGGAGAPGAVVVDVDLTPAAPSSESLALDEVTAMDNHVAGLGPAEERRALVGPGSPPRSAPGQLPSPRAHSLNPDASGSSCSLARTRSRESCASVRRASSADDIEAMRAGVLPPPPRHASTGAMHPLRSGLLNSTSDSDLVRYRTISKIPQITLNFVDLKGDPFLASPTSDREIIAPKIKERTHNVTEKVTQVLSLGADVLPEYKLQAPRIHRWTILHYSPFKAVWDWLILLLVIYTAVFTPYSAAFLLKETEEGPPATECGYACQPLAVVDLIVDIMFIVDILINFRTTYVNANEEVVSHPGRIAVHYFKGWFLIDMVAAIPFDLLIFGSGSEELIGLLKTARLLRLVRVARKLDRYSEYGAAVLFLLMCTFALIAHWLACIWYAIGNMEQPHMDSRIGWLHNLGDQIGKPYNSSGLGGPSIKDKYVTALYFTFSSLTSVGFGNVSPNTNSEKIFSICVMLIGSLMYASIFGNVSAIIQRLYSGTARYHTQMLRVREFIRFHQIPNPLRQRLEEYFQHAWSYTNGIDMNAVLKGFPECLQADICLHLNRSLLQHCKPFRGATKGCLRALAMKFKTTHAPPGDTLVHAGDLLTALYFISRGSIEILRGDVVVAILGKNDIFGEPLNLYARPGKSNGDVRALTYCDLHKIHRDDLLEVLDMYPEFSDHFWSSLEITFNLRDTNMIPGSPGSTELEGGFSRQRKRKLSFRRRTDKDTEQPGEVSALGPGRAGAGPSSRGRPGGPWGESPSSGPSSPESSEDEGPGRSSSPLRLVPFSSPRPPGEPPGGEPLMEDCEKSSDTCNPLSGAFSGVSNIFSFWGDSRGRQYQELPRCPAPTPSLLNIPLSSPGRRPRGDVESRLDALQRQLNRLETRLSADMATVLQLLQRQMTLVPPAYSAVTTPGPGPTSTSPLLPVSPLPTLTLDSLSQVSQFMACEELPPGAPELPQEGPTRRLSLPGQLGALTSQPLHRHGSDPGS
With `Cc1noc(C)c1COC(=O)COc1ccc2c(C)cc(=O)oc2c1` the “hERG current change (%, negative = inhibition) at 10uM” value was -7.08%.
For `O=C(CCNS(=O)(=O)c1cccc2nsnc12)NCc1cccs1`, the “hERG current change (%, negative = inhibition) at 10uM” value was 0.101%.
`CNC(=O)N(O)C1N(c2ccccc2)C(=S)SC1(C)C` (centres unmarked) was tested, and the “hERG current change (%, negative = inhibition) at 10uM” value was 11.6%.
For `Cc1ccccc1Cn1c2ccccc2c2cnn(CC(=O)NCc3ccccn3)c(=O)c21`, the “hERG current change (%, negative = inhibition) at 10uM” value was 18.1%.
For `Cc1nc2nc(SCC(=O)c3ccccc3)[nH]c2cc1Br`, the “hERG current change (%, negative = inhibition) at 10uM” value was 8.98%.
For `COc1ccc(-c2csc(-c3[nH]cnc3N)n2)cc1`, the “hERG current change (%, negative = inhibition) at 10uM” value was -17.7%.
In the case of `Cc1ccnc(NC(=O)c2cc3ccccc3oc2=O)c1`, the “hERG current change (%, negative = inhibition) at 10uM” value is reported as 8.47%.
With `CCN1CCN(c2cc(C)c3cc(NC(=S)N4CCCC(C)C4)ccc3n2)CC1` (centres unmarked) the “hERG current change (%, negative = inhibition) at 10uM” value was -51.3%.
In the case of `O=C(CCN1C(=O)c2ccccc2C1=O)Nc1cc(F)ccc1F`, the “hERG current change (%, negative = inhibition) at 10uM” value is reported as 0.799%.
For `COC(=O)c1ccc2c(=O)[nH]c(COC(=O)c3c(-c4ccccc4)noc3C)nc2c1`, the “hERG current change (%, negative = inhibition) at 10uM” value was -1.82%.
For `COc1ccc(C(=O)NNC(=O)C(=O)NCc2ccccc2)cc1`, the “hERG current change (%, negative = inhibition) at 10uM” value was 13.8%.
With `COCCNC(=S)N1CCN(Cc2ccc3c(c2)OCO3)CC1` the “hERG current change (%, negative = inhibition) at 10uM” value was 5.87%.
For `CCn1cnc2c(oc3ccccc32)c1=O`, the “hERG current change (%, negative = inhibition) at 10uM” value was 18.3%.
`Cc1cccc(NC(=O)CSc2n[nH]c(-c3ccncc3)n2)c1` was tested, and the “hERG current change (%, negative = inhibition) at 10uM” value was -0.573%.
With `COc1cc(C(=O)O)ccc1OCc1ccncc1` the “hERG current change (%, negative = inhibition) at 10uM” value was 14.1%.
`Cc1c(C=O)c2ccccc2n1CCOc1ccccc1F` was tested, and the “hERG current change (%, negative = inhibition) at 10uM” value was 6.67%.
With `CCOC(=O)N1CCC(NC(=O)c2ccc(CS(=O)c3cccc(C)c3)o2)CC1` (centres unmarked) the “hERG current change (%, negative = inhibition) at 10uM” value was 8.06%.
With `O=S(=O)(Cc1ccccc1)Nc1ccccc1Br` the “hERG current change (%, negative = inhibition) at 10uM” value was 17.3%.
For `O=C1C=C(/C=C/c2ccccc2)C[C@@H](c2ccc3c(c2)OCO3)C1`, the “hERG current change (%, negative = inhibition) at 10uM” value was 20%.
`Cc1ccc(C(=O)OCC(=O)NCc2cccs2)cc1S(=O)(=O)N1CCOCC1` was tested, and the “hERG current change (%, negative = inhibition) at 10uM” value was -4%.
For `O=C(COC(=O)c1ccc(Cl)nc1)NNC(=O)c1ccc(Br)cc1`, the “hERG current change (%, negative = inhibition) at 10uM” value was -0.746%.
With `Cc1ccnc(NC(=O)CNC(=O)c2ccc(Br)o2)c1` the “hERG current change (%, negative = inhibition) at 10uM” value was -2.64%.
In the case of `O=C(COc1ccc(F)cc1)Nc1cc(S(=O)(=O)N2CCCCC2)ccc1N1CCCCC1`, the “hERG current change (%, negative = inhibition) at 10uM” value is reported as 9.98%.
`COc1ccc(CCNC(=O)c2cc(-c3ccco3)on2)cc1OC` was tested, and the “hERG current change (%, negative = inhibition) at 10uM” value was -15%.
In the case of `S=C(CN1CCCC1=S)N1CCOCC1`, the “hERG current change (%, negative = inhibition) at 10uM” value is reported as 17.3%.
For `Cc1occc1C(=O)NCc1ccccc1`, the “hERG current change (%, negative = inhibition) at 10uM” value was 9.94%.
For `COc1ccc(C2(O)CCN(C(=O)c3c(F)cccc3F)CC2)cc1`, the “hERG current change (%, negative = inhibition) at 10uM” value was -2.18%.
In the case of `COc1ccccc1N1CCN(C/C(C)=C/c2ccccc2)CC1`, the “hERG current change (%, negative = inhibition) at 10uM” value is reported as -63.4%.
In the case of `O=c1c2c(-c3ccc([N+](=O)[O-])cc3)csc2nc2n1CCC2`, the “hERG current change (%, negative = inhibition) at 10uM” value is reported as -77.6%.
In the case of `COc1ccc(OC)c(S(=O)(=O)n2nnc3cc(Cl)ccc32)c1`, the “hERG current change (%, negative = inhibition) at 10uM” value is reported as 4.31%.
With `CS(=O)(=O)N1CCN(C(=O)Cc2ccccc2Cl)CC1` the “hERG current change (%, negative = inhibition) at 10uM” value was 14.7%.
`CC(=O)Nc1ccc(S(=O)(=O)NCC(=O)OCC(=O)N2CCc3ccccc32)cc1` was tested, and the “hERG current change (%, negative = inhibition) at 10uM” value was 8.99%.
`CN(C)/C=C/C(=O)c1cccc(C(F)(F)F)c1` was tested, and the “hERG current change (%, negative = inhibition) at 10uM” value was -0.664%.
With `O=C(Nc1ccccc1F)c1ccc(CSc2ccccc2)o1` the “hERG current change (%, negative = inhibition) at 10uM” value was 0.17%.
`COc1ccc(C(=O)Nc2ccc(S(=O)(=O)Nc3cc(C)nc(C)n3)cc2)c(OC)c1` was tested, and the “hERG current change (%, negative = inhibition) at 10uM” value was -0.751%.
`CC(C)N1CCc2[nH]c(=S)[nH]c(=O)c2C1` was tested, and the “hERG current change (%, negative = inhibition) at 10uM” value was -4.1%.
`CN(Cc1cccs1)S(=O)(=O)c1cccs1` was tested, and the “hERG current change (%, negative = inhibition) at 10uM” value was -7.71%.
In the case of `CC(=O)N1N=C(c2cccs2)CC1c1cc2cc(C)ccc2nc1Cl` (centres unmarked), the “hERG current change (%, negative = inhibition) at 10uM” value is reported as -0.431%.
`Cc1ccc(C(C)C)c(OCC(=O)Nc2sc3c(c2C#N)CC(C)(C)NC3(C)C)c1` was tested, and the “hERG current change (%, negative = inhibition) at 10uM” value was 10.1%.
In the case of `O=C(Nc1ccc(F)c(F)c1)c1cnc(-c2ccccc2)nc1-c1ccccc1`, the “hERG current change (%, negative = inhibition) at 10uM” value is reported as -16.7%.
In the case of `CCCCc1nc2ccccc2c(=O)n1NC(=O)c1c(O)c2cccc3c2n(c1=O)CC3`, the “hERG current change (%, negative = inhibition) at 10uM” value is reported as -0.16%.
In the case of `O=C(Nc1ccccc1C(=O)O)c1cc(S(=O)(=O)N2CCOCC2)c(Br)s1`, the “hERG current change (%, negative = inhibition) at 10uM” value is reported as 17.6%.
For `COC(=O)C1CCCN1C(=O)COc1ccc(Cl)cc1Br` (centres unmarked), the “hERG current change (%, negative = inhibition) at 10uM” value was -6.09%.
With `CN(C)c1ccc(NC(=S)c2ccccn2)cc1` the “hERG current change (%, negative = inhibition) at 10uM” value was 14.1%.
